# In article PMC6212790:
# The other results are listed elsewhere or left out. At the low end of the ranking the order means little.
# Target: T1, GST-Rok-C97-191 (UniProt O34857)
# T1 sequence: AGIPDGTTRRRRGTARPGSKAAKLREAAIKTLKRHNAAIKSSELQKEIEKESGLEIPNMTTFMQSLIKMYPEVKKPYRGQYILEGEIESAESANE
# Assay: protein binding microarray;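 note: rank score from −0.5 (least bound) to 0.5 (best bound)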
# Conditions: Rok is a gene silencer of Bacillus subtilis; high values mean tight binding; most listed sequences are background and not binding sites; double strand, one strand shown
row,Sequence,binding signal
1,CTCCGCGA,-0.0751 E-score
2,ATAGTCTA,0.118 E-score
3,ATGGATGA,0.133 E-score
4,AACGGGGT,-0.0866 E-score
5,CGGCCCAA,-0.179 E-score
6,CGGCGGGA,-0.127 E-score
7,TAGAAACA,0.306 E-score
8,GACAAACA,0.0203 E-score
9,CTCCGACA,-0.289 E-score
10,CGACAATA,0.123 E-score
11,GGGCCGAA,-0.265 E-score
12,CGTAGAAC,0.207 E-score
13,CACAACCG,-0.0715 E-score
14,CGTTCAGA,0.00206 E-score
15,CCATAGAA,0.0533 E-score
16,CAAAAGCA,-0.192 E-score
17,CTAACCCA,0.0606 E-score
18,AGAGGACG,-0.277 E-score
19,AAGCACAC,-0.128 E-score
20,GGAGAAAA,0.0231 E-score
21,ATTTAGCC,0.232 E-score
22,AAAGTGGG,-0.169 E-score
23,ATGATCGA,0.0912 E-score
24,CCTGGTTA,0.0123 E-score
25,ATTCAAAT,-0.0558 E-score

row,Sequence,binding signal
1,CTCCGCTC,-0.148 E-score
2,ACAATCGG,-0.106 E-score
3,ACATACCC,-0.0351 E-score
4,GACCCTGA,-0.367 E-score
5,ATTACATC,0.137 E-score
6,GGGGCAAC,-0.227 E-score
7,AAAAAGCT,0.0222 E-score
8,CAATCAGA,-0.301 E-score
9,GGGTCCAA,-0.33 E-score
10,GTAACGGA,0.0166 E-score
11,CCGGGATA,-0.0118 E-score
12,AAACGGAG,-0.159 E-score
13,CAGATAGA,0.16 E-score
14,GCGACAGC,-0.016 E-score
15,AGGACGGC,-0.287 E-score
16,ACGTAATG,0.258 E-score
17,ACCGCGAA,0.0444 E-score
18,ATTCATAC,0.319 E-score
19,CTTGTTTC,-0.0603 E-score
20,AAGTGGCG,-0.0539 E-score
21,AGAGGTCC,-0.239 E-score
22,CTCGTCAA,-0.246 E-score
23,GGGACCCC,-0.39 E-score
24,ACTTTCCT,0.0736 E-score
25,ATACTGTC,0.0333 E-score

row,Sequence,binding signal
1,ATCCCACC,-0.0116 E-score
2,ATCGGATG,-0.0196 E-score
3,CCGACCGA,-0.214 E-score
4,CGTGCACG,0.052 E-score
5,CACGACTC,-0.0526 E-score
6,ACAATGAA,0.0771 E-score
7,ACAATTCG,0.0651 E-score
8,ATGCCTCG,-0.186 E-score
9,CTTTCCGC,-0.0117 E-score
10,TCGGAACA,-0.143 E-score
11,AGCGTGTG,-0.0167 E-score
12,AATAAACT,0.244 E-score
13,ACGCGCCC,-0.24 E-score
14,GGACCAAA,-0.211 E-score
15,AAGTTGCG,0.0296 E-score
16,AAAAGGGT,-0.0457 E-score
17,ACATAACT,0.265 E-score
18,AGCTGTCA,0.0202 E-score
19,CAGCAATA,0.203 E-score
20,ACGGAGGA,-0.291 E-score
21,CGCGAGTA,0.113 E-score
22,ACACTGTC,-0.089 E-score
23,ATGATCAC,0.0913 E-score
24,GGCTCGCA,-0.224 E-score
25,GCTACACC,-0.0612 E-score

row,Sequence,binding signal
1,ACCAGAAT,0.103 E-score
2,AGCAAGAC,-0.139 E-score
3,GCGCAAAC,0.146 E-score
4,GGGGAGCA,-0.318 E-score
5,ATTGTTGC,0.15 E-score
6,AACCTTGG,-0.172 E-score
7,ATCGTTAC,-0.0272 E-score
8,ATATGCCC,0.062 E-score
9,CGGGAACC,-0.188 E-score
10,GGCGTTGA,-0.0681 E-score
11,CTCCAGCA,0.0279 E-score
12,CATCAATC,-0.0832 E-score
13,GGTCTGAA,0.0526 E-score
14,AGTACTAC,0.35 E-score
15,AGCCCGAG,-0.202 E-score
16,GCAGCGTA,-0.208 E-score
17,ATACTATA,0.365 E-score
18,ACTGGCAG,-0.166 E-score
19,AAAAGGAG,-0.0392 E-score
20,CGCTAGAC,0.00486 E-score
21,TCGCCCCA,-0.0292 E-score
22,AAGCCCAC,-0.214 E-score
23,ACCTACGT,0.161 E-score
24,AAGGCTAG,0.0655 E-score
25,CAATCCCC,-0.0586 E-score

row,Sequence,binding signal
1,ACCACCAC,-0.102 E-score
2,GGATTTAC,0.132 E-score
3,AACATATT,0.24 E-score
4,CCATCCAC,-0.165 E-score
5,GTCTCAAA,-0.0258 E-score
6,CGTTTCTC,-0.0794 E-score
7,TCTAAACA,-0.105 E-score
8,CGTATCAA,0.0404 E-score
9,ACAGATGA,0.0485 E-score
10,CGTCGAGC,-0.175 E-score
11,AGTAGCAA,0.277 E-score
12,GTGGCATA,-0.0162 E-score
13,AAACTAAG,0.251 E-score
14,CAGGAGAG,-0.115 E-score
15,CAAATATA,0.346 E-score
16,ATCCTTCG,-0.0586 E-score
17,AATGGGAT,0.00426 E-score
18,CAGAGGAG,-0.272 E-score
19,AGCATGGG,-0.154 E-score
20,GGTATGGA,-0.0223 E-score
21,AACTAGAT,0.388 E-score
22,TCTCGCCA,-0.0338 E-score
23,ACGGATCA,-0.111 E-score
24,AATAGGTA,0.311 E-score
25,CCTGTTAC,0.0823 E-score

row,Sequence,binding signal
1,CCTGTCAC,-0.294 E-score
2,GGTCTCGA,-0.246 E-score
3,CAACATTC,-0.0739 E-score
4,GATTCAGA,-0.0773 E-score
5,CCCAGATC,-0.282 E-score
6,TACGTTGA,0.0426 E-score
7,CCTAAAAG,-0.0533 E-score
8,AATCCCAG,-0.0202 E-score
9,AACCGACC,-0.11 E-score
10,CATTAACG,0.0908 E-score
11,GATCGAAC,0.079 E-score
12,CAACAGAC,-0.0835 E-score
13,CCCAATGC,-0.0562 E-score
14,ACTTATAC,0.291 E-score
15,GTCGGAAC,0.0505 E-score
16,CGTCAAAG,-0.233 E-score
17,ACGTTTAT,0.124 E-score
18,ATGTATTG,0.213 E-score
19,AACGCGTT,0.0668 E-score
20,AACCGTGG,-0.0431 E-score
21,AGCTATGA,0.125 E-score
22,ATGCGGAA,-0.0341 E-score
23,ACAGTATA,0.299 E-score
24,ACCTGAAG,-0.0424 E-score
25,ATCTACCC,0.22 E-score

row,Sequence,binding signal
1,GCACGAGA,-0.134 E-score
2,CTCTGTTA,-0.0862 E-score
3,AAGGGAAA,-0.00394 E-score
4,AGACCTGA,-0.00447 E-score
5,CGGGTCCA,-0.234 E-score
6,GGACAGGA,-0.175 E-score
7,GATTGTCA,0.0702 E-score
8,TTAATTAA,0.346 E-score
9,GGTGTCCA,-0.331 E-score
10,CCTAAAGC,-0.145 E-score
11,TCTGAGAA,-0.0868 E-score
12,CGTGTACC,-0.206 E-score
13,ACGACGAA,-0.0769 E-score
14,TAACACTA,0.269 E-score
15,GTCATACA,0.0239 E-score
16,CTTACGTA,0.0916 E-score
17,ATCAATCC,-0.0371 E-score
18,CAGAGTCG,-0.19 E-score
19,AATTGTCT,0.0485 E-score
20,ACGCGATC,-0.103 E-score
21,CCTCTACC,-0.0233 E-score
22,TATACGAA,0.197 E-score
